Among all 320,000 compounds or so, about 9,100 (2.8%) were called active. The shares of active, inactive and inconclusive entries below differ from those in the screen. The call rests on the fitted dose curve; in most records, active means well fitted activation curve with a large enough effect; inconclusive means small, poorly fitted or top-dose-only effect; inactive means no such curve, though single readings can be large or run the other way. Where the call is inconclusive, the potency comes from a doubtful curve fit.
Experiment: qHTS Assay for Rab9 Promoter Activators; further: nearly all actives have a fitted effect of over 60% in size
Settings: Huh7 Rab9 promoter-luciferase reporter, luminescence, 24 h; series mostly up to 9.22 µM
Procedure, shortened: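 Cells were plated at 1500 per well in reduced-serum medium with 10% FBS and left 2 h. Compound in DMSO was then added for 24 h at 37 °C. Reporter signal was read by luminescence after 10 min with luciferase detection reagent.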
Potency means the concentration at half of the fitted maximal effect; tags describe the fitted curve by direction and shape.

Potency, inconclusive:
c1ccc(-c2csc(-c3ccc(-c4csnn4)cc3)n2)cc1 3.55 µM [activator, single point]
Cc1ccc(C(=O)OCC(=O)N2CCNC2=O)c(C)c1 1.78 µM [activator, partial curve]
COc1ccc(C(=O)Nc2cccc(C(=O)N3CCN(C)CC3)c2)cc1 3.16 µM [activator, partial curve]
O=c1oc2ccccc2cc1-c1cn(-c2ccccc2)c(=S)[nH]1 0.01 µM [activator, full curve]
Cc1cc2oc(=O)cc(CN3CCC(C)CC3)c2c(C)c1Cl 3.16 µM [activator, single point]
CCC1CCCCN1C(=O)CCCc1ccccc1 (configuration not stated) 5.01 µM [activator, single point]
COc1ccc(Nc2cccc3ccccc23)cc1 3.55 µM [activator, single point]
Cc1cccc(N/N=C/c2ccncc2)c1 3.16 µM [activator, single point]
O=[N+]([O-])c1ccc2oc(C3CCCCC3)nc2c1 2.51 µM [activator, partial curve, poor fit]
COc1ccccc1NC(=O)COC(=O)c1c(C)nn(-c2ccccc2)c1C 5.62 µM [activator, single point]
COc1ccc2nc(NCc3ccccc3)[nH]c2c1 6.31 µM [activator, single point]
Oc1ccc(-c2cn3ccccc3n2)cc1O 5.62 µM [activator, single point]
O=C(NCc1cccs1)Nc1ccc(Cl)cc1 3.55 µM [activator, partial curve]

Potency, inactive:
CCOC(=O)C1=C(C)NC(C)=C(C(=O)OCC)C1C(=O)OCC(=O)N1CCCCC1CC (configuration not stated)
CCOc1cc(C(=O)Nc2ccccc2F)cc(Br)c1OCC
COc1ccc(CCC(=O)N2CCN(S(=O)(=O)c3ccc(OC)cc3)CC2)cc1
O=C(O)CCSc1nnc(-c2ccc3c(c2)OCO3)o1
CC(Oc1cccc(Cl)c1)C(=O)Nc1cc(S(=O)(=O)N2CCCCC2)ccc1N1CCOCC1 (configuration not stated)
CC(=O)c1cccc(NC(=S)NC(=O)Cc2ccc(Cl)cc2)c1
S=c1[nH]nc(-c2cc(-c3ccccc3)n[nH]2)n1/N=C/c1ccccc1

Potency, active:
O=C1c2ccccc2-c2nc3ccccc3nc21 2.24 µM
Cc1cccnc1NC(=S)Nc1ncccc1C 0.708 µM

— PubChem BioAssay AID485297 (National Center for Advancing Translational Sciences (NCATS), 2010)
